# Some of the results follow.
# B1: CBM13 2a (Mycobacterium tuberculosum), P64849 (protein)
# chain: DGPVQLKSRLGDVCLDAPSGSWFSPLVINPCNGTDFQRWNLTDDRQVESVAFPGECVNIGNALWARLQPCVNWISQHWTVQPDGLVKSDLDACLTVLGGPDPGTWVSTRWCDPNAPDQQWDSVPLEHHHHHH
# Legend:
# Test in all cases: glycan array binding signal (z-score within array); higher = stronger binding
# Details in all cases: glycan notation: IUPAC condensed, linker removed
# [1] = biological target: Neu5Ac(a2-6)GlcNAc(b1-4)GlcNAc(b1-4)GlcNAc
# How it was run: (§1)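 Negative Z-scores can be read as non-binding. The Z-score is calculated within each array and then averaged across arrays of one protein sequence at different concentrations or buffers and across linkers. Arrays, 3228 in all, were curated from the Consortium for Functional Glycomics database and kept only where the protein sequence was available.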
# Neu5Ac(a2-8)Neu5Ac = biological target: Neu5Ac(a2-8)Neu5Ac
# How it was run: as §1
# [2] = biological target: Neu5Ac(a2-8)Neu5Ac(a2-3)Gal(b1-3)GalNAc(b1-4)[Neu5Ac(a2-3)]Gal(b1-4)Glc
# How it was run: as §1
# [3] = biological target: Neu5Ac(a2-8)Neu5Ac(a2-3)Gal(b1-3)GalNAc(b1-4)[Neu5Ac(a2-8)Neu5Ac(a2-3)]Gal(b1-4)Glc
# How it was run: as §1
# [4] = biological target: Neu5Ac(a2-8)Neu5Ac(a2-3)Gal(b1-4)Glc
# How it was run: as §1
# [5] = biological target: Neu5Ac(a2-8)Neu5Ac(a2-3)Gal(b1-4)GlcNAc
# How it was run: as §1
# [6] = biological target: Neu5Ac(a2-8)Neu5Ac(a2-3)[Gal(b1-3)GalNAc(b1-4)]Gal(b1-4)Glc
# How it was run: as §1
# [7] = biological target: Neu5Ac(a2-8)Neu5Ac(a2-3)[GalNAc(b1-4)]Gal(b1-4)Glc
# How it was run: as §1
# [8] = biological target: Neu5Ac(a2-8)Neu5Ac(a2-8)Neu5Ac
# How it was run: as §1
# [9] = biological target: Neu5Ac(a2-8)Neu5Ac(a2-8)Neu5Ac(a2-3)Gal(b1-4)Glc
# How it was run: as §1
# [10] = biological target: Neu5Ac(a2-8)Neu5Ac(a2-8)Neu5Ac(a2-3)[Gal(b1-3)GalNAc(b1-4)]Gal(b1-4)Glc
# How it was run: as §1
# [11] = biological target: Neu5Ac(a2-8)Neu5Ac(a2-8)Neu5Ac(a2-3)[GalNAc(b1-4)]Gal(b1-4)Glc
# How it was run: as §1
# [12] = biological target: Neu5Ac(a2-8)Neu5Ac(a2-8)Neu5Ac(a2-8)Neu5Ac(a2-3)[GalNAc(b1-4)]Gal(b1-4)Glc
# How it was run: as §1
# [13] = biological target: Neu5Ac(a2-8)Neu5Gc(a2-3)Gal(b1-4)GlcNAc
# How it was run: as §1
# [14] = biological target: Neu5Ac(b2-6)Gal(b1-4)GlcNAc
# How it was run: as §1
# Neu5Ac(b2-6)GalNAc = biological target: Neu5Ac(b2-6)GalNAc
# How it was run: as §1
# [15] = biological target: Neu5Ac9Ac(a2-3)Gal(b1-4)GlcNAc
# How it was run: as §1
# [16] = biological target: Neu5Ac9Ac(a2-6)Gal(b1-4)GlcNAc
# How it was run: as §1
# [17] = biological target: Neu5Gc(a2-3)Gal(b1-3)GlcNAc
# How it was run: as §1
# [18] = biological target: Neu5Gc(a2-3)Gal(b1-3)[Fuc(a1-4)]GlcNAc
# How it was run: as §1
# Neu5Gc(a2-3)Gal(b1-4)Glc = biological target: Neu5Gc(a2-3)Gal(b1-4)Glc
# How it was run: as §1
# [19] = biological target: Neu5Gc(a2-3)Gal(b1-4)GlcNAc
# How it was run: as §1
# [20] = biological target: Neu5Gc(a2-3)Gal(b1-4)GlcNAc(b1-3)Gal(b1-4)GlcNAc(b1-2)Man(a1-3)[Neu5Gc(a2-3)Gal(b1-4)GlcNAc(b1-3)Gal(b1-4)GlcNAc(b1-2)Man(a1-6)]Man(b1-4)GlcNAc(b1-4)GlcNAc
# How it was run: as §1
# [21] = biological target: Neu5Gc(a2-3)Gal(b1-4)[Fuc(a1-3)]GlcNAc
# How it was run: as §1
# [22] = biological target: Neu5Gc(a2-6)Gal(b1-4)GlcNAc
# How it was run: as §1
# Neu5Gc(a2-6)GalNAc = biological target: Neu5Gc(a2-6)GalNAc
# How it was run: as §1
# [23] = biological target: Neu5Gc(a2-8)Neu5Ac(a2-3)Gal(b1-4)GlcNAc
# How it was run: as §1
# [24] = biological target: Neu5Gc(a2-8)Neu5Gc(a2-3)Gal(b1-4)GlcNAc
# How it was run: as §1
# [25] = biological target: Neu5Gc(a2-8)Neu5Gc(a2-3)Gal(b1-4)GlcNAc(b1-3)Gal(b1-4)GlcNAc
# How it was run: as §1
# [26] = biological target: Neu5Gc(a2-8)Neu5Gc(a2-6)Gal(b1-4)GlcNAc
# How it was run: as §1
# [27] = biological target: Neu5Gc(b2-6)Gal(b1-4)GlcNAc
# How it was run: as §1
binder,measurement,setting,value
B1,glycan array binding signal (z-score),[1],-0.314
same,glycan array binding signal (z-score),Neu5Ac(a2-8)Neu5Ac,-0.302
same,glycan array binding signal (z-score),[2],0.01
same,glycan array binding signal (z-score),[3],-0.313
same,glycan array binding signal (z-score),[4],-0.117
same,glycan array binding signal (z-score),[5],-0.278
same,glycan array binding signal (z-score),[6],-0.141
same,glycan array binding signal (z-score),[7],-0.14
same,glycan array binding signal (z-score),[8],-0.237
same,glycan array binding signal (z-score),[9],-0.224
same,glycan array binding signal (z-score),[10],-0.242
same,glycan array binding signal (z-score),[11],1.39
same,glycan array binding signal (z-score),[12],0.108
same,glycan array binding signal (z-score),[13],-0.117
same,glycan array binding signal (z-score),[14],-0.193
same,glycan array binding signal (z-score),Neu5Ac(b2-6)GalNAc,-0.347
same,glycan array binding signal (z-score),[15],0.861
same,glycan array binding signal (z-score),[16],0.017
same,glycan array binding signal (z-score),[17],-0.266
same,glycan array binding signal (z-score),[18],-0.248
same,glycan array binding signal (z-score),Neu5Gc(a2-3)Gal(b1-4)Glc,-0.166
same,glycan array binding signal (z-score),[19],-0.274
same,glycan array binding signal (z-score),[20],-0.071
same,glycan array binding signal (z-score),[21],-0.351
same,glycan array binding signal (z-score),[22],0.014
same,glycan array binding signal (z-score),Neu5Gc(a2-6)GalNAc,-0.286
same,glycan array binding signal (z-score),[23],-0.174
same,glycan array binding signal (z-score),[24],-0.233
same,glycan array binding signal (z-score),[25],0.24
same,glycan array binding signal (z-score),[26],-0.247
same,glycan array binding signal (z-score),[27],-0.306
